From PubChem BioAssay AID2551 (National Center for Advancing Translational Sciences (NCATS), 2010)
Several values for one entry are separate records, joined by “and”; a condition that tells them apart may be missing. Equal entries are not always repeated. The campaign covered roughly 310,000 compounds. About 17,000 (5.5%) were called active. Roughly 11% stayed inconclusive and do not appear here. Calls follow the shape of the dose curve; as a rule, active = well fitted inhibition curve with a large enough effect; inconclusive = small, poorly fitted or top-dose-only effect, or effect the other way; inactive = no such curve, though single readings can be large or run the other way. Only a part is listed here, and it is no random draw. The source holds several records for some structures; these can differ, active in one and inactive in another.
% is scaled to controls: 0 for no effect and ±100 for the full control effect; potency is read from the fitted curve at half-maximal effect.
Also: nearly all actives have a fitted effect of over 60% in size.

What follows are compounds tested against Nuclear receptor ROR-gamma (Mus musculus) (UniProt P51450) (assay: qHTS for inhibitors of ROR gamma transcriptional activity). Settings: Drosophila S2 Gal4-RORgamma UAS-luciferase reporter, 20 h; series mostly up to 53.6 µM; activity change, negative = inhibition: at the top concentration.
Sequence of UniProt P51450 (P51450 whole entry, looked up, the tested form may be a part): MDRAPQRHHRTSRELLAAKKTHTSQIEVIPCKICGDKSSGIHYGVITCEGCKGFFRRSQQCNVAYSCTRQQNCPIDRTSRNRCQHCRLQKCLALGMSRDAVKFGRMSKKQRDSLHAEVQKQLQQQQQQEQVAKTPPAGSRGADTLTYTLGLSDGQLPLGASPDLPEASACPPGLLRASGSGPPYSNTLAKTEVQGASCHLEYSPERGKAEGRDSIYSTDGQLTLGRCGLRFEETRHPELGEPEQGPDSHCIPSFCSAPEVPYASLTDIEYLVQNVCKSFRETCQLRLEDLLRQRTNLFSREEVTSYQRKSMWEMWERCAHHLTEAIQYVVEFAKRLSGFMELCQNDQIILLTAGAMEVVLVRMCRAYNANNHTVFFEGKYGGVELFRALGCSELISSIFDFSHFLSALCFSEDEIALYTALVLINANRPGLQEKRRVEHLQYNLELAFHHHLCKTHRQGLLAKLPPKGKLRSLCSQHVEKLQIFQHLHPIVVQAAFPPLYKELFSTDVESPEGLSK
Procedure, shortened: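 A Gal4/UAS one-hybrid system in insect cells: metallothionein-promoter Gal4–ROR gamma fusion plus Photinus luciferase reporter. Copper sulfate 700 uM final, 20 hr ambient incubation, luminescent detection after 10 min with reagent.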
In the case of `Cc1cc(N2CCOCC2)nc2ccc(NC(=S)NCc3ccc4c(c3)OCO4)cc12`, the Potency is reported as active: 22.4 µM.
`COc1ccc(C2CC(=O)Oc3ccc(C(C)(C)C)cc32)cc1` (stereo not drawn) was tested, and the “activity change, negative = inhibition” value was inactive: 19.3%.
`COc1cccc([C@@H]2Oc3ccc(OC)cc3C(=O)[C@H]2O)c1` was tested, and the Potency was active: 12.6 µM.
For `C[C@]12C=CC(=O)C=C1CC[C@@H]1[C@@H]2C(=O)C[C@@]2(C)[C@H]1CC[C@]2(O)C(=O)CO`, the “activity change, negative = inhibition” value was inactive: 4.18%.
In the case of `CC(C)[C@H](NC(=O)N1CCn2c1nc1ccccc12)C(=O)N[C@@H](C(=O)O)c1ccccc1`, the “activity change, negative = inhibition” value is reported as inactive: -2.56%.
In the case of `Cc1nc2ccccn2c1C(=O)/C=C/c1ccc(F)cc1`, the Potency is reported as active: 8.91 µM.
For `S=C(Nc1ccc(Oc2ccccc2)cc1)NC1CCCC1`, the Potency was active: 5.01 µM.
For `Nc1nc2ccccc2n1C(=O)c1ccco1`, the Potency was active: 11.2 µM.
For `C#CCNC(=O)C1=C[C@@H](c2ccc(Br)cc2)C[C@@H](OCc2ccc(CO)cc2)O1`, the “activity change, negative = inhibition” value was inactive: 38.6%.
With `CC[C@H](C)C(=O)O[C@H]1CCC=C2C=C[C@H](C)[C@H](CC[C@@H]3C[C@H](O)CC(=O)O3)[C@H]21` the “activity change, negative = inhibition” value was inactive: 23.8%.
For `NNC(=O)[C@@H]1C[C@@H]1c1ccccc1`, the activity change, negative = inhibition was inactive: -6.66% [at 10 µM].
For `C[C@H]1C[C@H]2[C@@H]3CCC4=CC(=O)C=C[C@]4(C)[C@@]3(Cl)[C@@H](O)C[C@]2(C)[C@@]1(O)C(=O)CO`, the “activity change, negative = inhibition” value was inactive: -23.4%.
In the case of `NC(=S)N/N=C/c1cn(-c2ccccc2)nc1-c1cccnc1`, the Potency is reported as active: 6.31 µM.
In the case of `CC1CCN(CCNC(=O)c2ccc3c(=O)n(Cc4ccc(Cl)cc4)c(=S)[nH]c3c2)CC1`, the Potency is reported as active: 11.2 µM.
`C[C@@H]1CC[C@@]2(O[C@H](CCO)C[C@H](O)[C@H]2O)O1` was tested, and the “activity change, negative = inhibition” value was inactive: -4.8%.
With `Cc1cc(OC(=O)c2c(C)cc(O)cc2O)cc(O)c1C(=O)O` the “activity change, negative = inhibition” value was inactive: -38%.
For `O=C(COc1ccc(Cl)cc1Cl)NNC(=S)NC(=O)c1ccco1`, the Potency was active: 11.2 µM.
For `S=C1NC[C@H](Cc2ccccc2)N1CCc1cccc2ccccc12`, the Potency was active: 1 µM.
For `CCCCC[C@H](O)/C=C/[C@@H]1[C@@H](C/C=C\CCCC(=O)O)[C@H]2CO[C@@H]1C2`, the “activity change, negative = inhibition” value was inactive: 0.827%.
In the case of `COC(=O)[C@@H]1CC[C@H](C)[C@@H](c2ccc(C)cc2)N1C(=O)c1ccc(/C=N\O[C@@H](C)c2cn([C@H](CO)Cc3ccccc3)nn2)cc1`, the activity change, negative = inhibition is reported as inactive: -18.6% [at 10 µM] and inactive: -4.03% [at 10 µM].
In the case of `CC[C@H](C)[C@@H](NC(=O)O[C@@H]1C(=O)c2cc(Br)ccc2O[C@H]1c1ccc2c(c1)OCO2)C(=O)OC`, the “activity change, negative = inhibition” value is reported as inactive: 28.7%.
For `COc1cc(C2c3cc4c(cc3C(OC3OC5COC(C)O[C@@H]5C(O)C3O)C3COC(=O)C23)OCO4)cc(OC)c1O` (stereo partly drawn), the “activity change, negative = inhibition” value was inactive: -31.9%.
With `CSc1ccc(/C=N/Nc2nc(C)cc(C)n2)cc1` the Potency was active: 11.2 µM.
`CCC1=C(OC(=O)N(CC)CC)N2C(=O)OC(=NCc3ccccc3)[C@]2(C)[C@H]2C1=CC[C@H]1C(=O)NC(=O)[C@H]12` was tested, and the “activity change, negative = inhibition” value was inactive: 3.8%.
In the case of `COc1ccc(C2/C=C\CN(C(=O)CC(C)C)CC(=O)N2Cc2ccc(F)cc2)cc1` (stereo not drawn), the “activity change, negative = inhibition” value is reported as inactive: 27.7%.
`Clc1cccc(Cl)c1CO/N=C/c1c(-c2ccccc2)nc2n1CCS2` was tested, and the Potency was active: 7.08 µM.
For `CCOC(=O)[C@@H]1[C@H]2COc3ccccc3[C@H]2N2C(=O)N(c3ccc(F)cc3)C(=O)[C@]12C`, the “activity change, negative = inhibition” value was inactive: 2.15%.
In the case of `COc1cc2c(cc1NC(=S)NC(=O)/C=C/c1ccco1)oc1ccccc12`, the Potency is reported as active: 3.16 µM.
In the case of `CC1=C(C(=O)OCc2ccccc2)C(c2ccc(C(C)(C)C)cc2)NC(=O)N1CCCCCC(=O)O` (stereo not drawn), the “activity change, negative = inhibition” value is reported as inactive: -0.537%.
For `COC(=O)[C@H](C)[C@H]1C[C@]1(C)[C@H](NC(=O)OCc1ccccc1)c1ccccc1`, the “activity change, negative = inhibition” value was inactive: 13.7%.
In the case of `COC1=C(OC)C(=O)C(CCCCCCCCCCO)=C(C)C1=O`, the activity change, negative = inhibition is reported as inactive: -17.5% [at 10 µM].
`COC(=O)c1ccc(NC(=S)Nc2ccccn2)cc1` was tested, and the Potency was active: 1 µM.
`CCCNC(=S)NNC(=O)c1cc(C2CC2)nc2ccccc12` was tested, and the Potency was active: 11.2 µM.
With `C#CCNC(=O)C1=C[C@H](c2csc3ccccc23)C[C@H](OCc2ccc(CO)cc2)O1` the “activity change, negative = inhibition” value was inactive: 28.1%.
With `CCn1c(-c2ccccc2)c(C(=O)CCl)c2ccccc21` the Potency was active: 11.2 µM.
For `C[C@]12C(=O)N(c3ccc(C(F)(F)F)cc3)C(=O)N1[C@@H]1c3ccccc3OC[C@@H]1[C@H]2c1ccccc1`, the “activity change, negative = inhibition” value was inactive: -9.06%.
For `O=c1oc2ccccc2cc1-c1nc(-c2ccccc2)no1`, the Potency was active: 11.2 µM.
In the case of `CCCCCOc1ccc(CSCCNC(=S)Nc2ccccc2)cc1`, the Potency is reported as active: 3.16 µM.
With `COCCNC(=O)[C@H](C)[C@H]1C[C@]1(C)[C@H](NC(=O)OCc1ccccc1)c1ccccc1` the “activity change, negative = inhibition” value was inactive: -21.4%.
`COc1ccc(C(=O)NC2=NCCS2)cc1S(=O)(=O)N1CCCCC1C` (stereo not drawn) was tested, and the Potency was active: 14.1 µM.
`CSc1ccc(NC(=O)Nc2cc(C)ccn2)cc1` was tested, and the Potency was active: 8.91 µM.
For `CCOc1ccc(C(=O)NC(=S)Nc2cccnc2)cc1[N+](=O)[O-]`, the Potency was active: 14.1 µM.
In the case of `Cc1cc(Cl)ccc1NC(=S)Nc1cccnc1`, the Potency is reported as active: 12.6 µM.
For `CC1=NN(c2nc(-c3ccc(Cl)cc3)cs2)C(=O)C1`, the Potency was active: 10 µM.
In the case of `NC(=S)N/N=C/c1ccc(Br)o1`, the Potency is reported as active: 3.55 µM.
In the case of `C=CC[C@@H]1/C=C(\C)C[C@H](C)C[C@H](OC)[C@H]2O[C@@](O)(C(=O)C(=O)N3CCCC[C@H]3C(=O)O[C@H](/C(C)=C/[C@@H]3CC[C@@H](O)[C@H](OC)C3)[C@H](C)[C@@H](O)CC1=O)[C@H](C)C[C@@H]2OC`, the Potency is reported as “inactive”.
For `Cc1ccc(N2CN(Cc3ccco3)CNC2=S)cc1`, the Potency was active: 11.2 µM.
For `COc1ccc2c(c1)C(=O)[C@@H](O)[C@H](c1ccc(OC)c(Br)c1)O2`, the “activity change, negative = inhibition” value was inactive: -38.9%.
